# Measurements published in PubChem BioAssay AID686979 (National Center for Advancing Translational Sciences (NCATS), 2013).
# In all, about 420,000 compounds went through this assay and about 50,000 (12%) were called active. Inconclusive results, whose numbers are uncertain, are shown with a selection of clear calls. Calls follow the shape of the dose curve; as a rule, active = well fitted inhibition curve with a large enough effect; inconclusive = small, poorly fitted or top-dose-only effect; inactive = flat fitted curve, though single readings scatter. Potencies of inconclusive entries are left out as doubtful fits.
# Experiment: qHTS for Inhibitors of human tyrosyl-DNA phosphodiesterase 1 (TDP1): qHTS in cells in presence of CPT; also: nearly all actives have a fitted effect of over 55% in size
# Details: chicken DT40 Tdp1-/-;hTDP1 cells + 20 nM CPT, ATP luminescence, 48 h; activity change, negative = growth inhibition: at 46.2 µM (top of the series) unless noted
# Method in brief: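 Chicken DT40 Tdp1-/- cells stably complemented with human TDP1 were seeded at 400 cells/well in medium containing 20 nM camptothecin, exposed to pin-transferred compounds, and grown at 37 °C for at least 48 hr. Viability was read as ATP luminescence.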
# % is scaled to controls: 0 for no effect and ±100 for the full control effect; potency is read from the fitted curve at half-maximal effect; tags tell the direction and shape of the fitted curve.
Compound,Potency,"activity change, negative = growth inhibition"
CO/N=C/C(=N\Nc1ccc(OC)cc1)C(=O)c1ccc(OC)cc1,"inconclusive [inhibitor, partial curve]",
COc1cc2ccccc2cc1C(=O)Nc1ccc(Br)cn1,,inconclusive: -31.4% [inhibitor]
COc1cc(NC(=O)C2COc3ccccc3O2)c(OC)cc1Cl (configuration not stated),"inconclusive [inhibitor, single point]",
CC(C)(C)NC(=O)C1CCCN(S(=O)(=O)c2cccc3cccnc23)C1 (configuration not stated),"inconclusive [inhibitor, partial curve]",
NC(=O)c1cccc2c1-c1ccccc1/C2=N/NC(N)=S,,inactive: 15.3%
CCCCC(CC)CNC(=O)C(Cc1ccccc1)NS(=O)(=O)c1ccc2c(c1)CCC(=O)N2 (configuration not stated),"inconclusive [inhibitor, partial curve]",
O=C(NC(=S)Nc1ccccc1F)c1ccc(Br)o1,,inactive: -11.6%
Clc1ccc(OCCOCCN2CCc3ccccc3C2)c(Cl)c1,"inconclusive [inhibitor, single point]",
NS(=O)(=O)c1ccc(CNC(=O)Cc2c(F)cccc2Cl)cc1,,inactive: 6.67%
COc1cc(C(=O)CC2(O)C(=O)N(Cc3ccccc3Cl)c3ccccc32)cc(OC)c1OC (configuration not stated),active: 5.8 µM,
Cc1ccc2sc(N(Cc3cccnc3)C(=O)CCOc3ccccc3)nc2c1C,active: 23.1 µM,
Cn1c(=N)n(CC(O)c2ccccc2)c2ccccc21 (configuration not stated),,inactive: -9.01%
COc1ccc(-c2nnc(SCC(=O)N3CCCC3)o2)cc1OC,,inactive: -19.2%
Cc1c(C(=O)N(Cc2ccc(N(C)C)cc2)C2CCS(=O)(=O)C2)oc2ccccc12 (configuration not stated),active: 29.1 µM,
O=C(NCCc1ccccn1)c1cc(-c2ccc(Cl)cc2)nc2ccccc12,active: 13 µM,
Cc1cccc(N2CCN(CCCNC(=O)C3CCCN(c4ncnc5c4nc4n5CCCCC4)C3)CC2C)c1 (configuration not stated),"inconclusive [inhibitor, single point]",
COc1ccc(C2CC(c3cccc(C(F)(F)F)c3)=NN2c2ccc(S(N)(=O)=O)cc2)cc1 (configuration not stated),"inconclusive [inhibitor, single point]",
COc1ccc(NC(=O)CSCC(=O)Nc2cccc3ncccc23)cc1,,inactive: -22.5%
CCCc1ccc(OCC(O)CN2CCc3ccccc3C2)cc1 (configuration not stated),"inconclusive [inhibitor, single point]",
O=C(O)c1ccc(CNC(=O)c2ccc3c(c2)OCCO3)cc1,,inactive: 11.7%
CCOc1ccc(OCC(=O)OCC(=O)N(CC(C)C)c2c(N)n(Cc3ccccc3)c(=O)[nH]c2=O)cc1,,inactive: -19.9%
Cc1nnc(NC(=O)CSc2nc3c([nH]c4ccccc43)c(=O)n2-c2ccccc2)s1,,inactive: -15.6%
O=C(CC(Nc1ccc(F)cc1)C(=O)OCC(=O)c1cccs1)c1ccccc1 (configuration not stated),"inconclusive [inhibitor, single point]",
COC(=O)C(C)N(C(=O)c1cccc(Cl)c1)c1c(C)cccc1C (configuration not stated),"inconclusive [inhibitor, single point]",
O=C(Nc1c(C(=O)N2CCN(c3ccc(F)cc3)CC2)oc2ccccc12)c1c(F)cccc1F,"inconclusive [inhibitor, partial curve]",
COc1ccc(-c2cn3cc(C(F)(F)F)cc(Cl)c3n2)cc1,"inconclusive [inhibitor, single point]",

Compound,Potency,"activity change, negative = growth inhibition"
CC(=O)c1ccccc1NC(=O)CSc1nnc(Cc2csc(C)n2)o1,,inactive: -12.3%
CCC(C)[C@H](NC(=O)N1CCn2c1nc1ccccc12)C(=O)NCCc1ccc(OC)c(OC)c1 (some centres not stated),active: 14.6 µM,
CCCC(=O)Nc1c(-c2ccc(OC)cc2)c(=O)c2ccccc2n1C,,inactive: -10%
O=C(CSC1CS(=O)(=O)c2cc([N+](=O)[O-])ccc21)NNC(=O)c1ccccc1 (configuration not stated),active: 13 µM,
O=C(NNc1nc(-c2ccc(Cl)cc2)cs1)c1ccco1,active: 18.4 µM,
C=CCC(=O)NC1CCCc2c1cnn2-c1cc(F)cc(F)c1 (configuration not stated),,inactive: -16.5%
CSc1ccc(S(=O)(=O)NCC(=O)OC2CCOC2=O)cc1[N+](=O)[O-] (configuration not stated),,inactive: 1.03%
CCCC(=O)NC(Nc1cc(C(F)(F)F)ccc1Cl)C(Cl)(Cl)Cl (configuration not stated),active: 18.4 µM,
Cc1c(-c2ccccc2)cn2c1-c1ccc(C)n1CC2,"inconclusive [inhibitor, single point]",
CCC(Sc1nc2ccccc2c2nc(CCn3cncc3C)nn12)C(=O)Nc1cccc(OC)c1 (configuration not stated),"inconclusive [inhibitor, single point]",
Cc1c([N+](=O)[O-])c2ccc(O)cc2n1-c1ccccc1,"inconclusive [inhibitor, partial curve]",
Fc1cccc(Cc2noc(CN3CCC(c4ccncc4)CC3)n2)c1,active: 18.4 µM,
Cn1c(C(=O)N2CCCC(C(=O)NCc3ccccc3)C2)cc2sccc21 (configuration not stated),"inconclusive [inhibitor, single point]",
CCNC(=S)N(CCc1c(C)[nH]c2ccccc12)Cc1cccnc1,"inconclusive [inhibitor, single point]",
CCC(=O)N1c2ccc(S(=O)(=O)N3CCN(c4ccc([N+](=O)[O-])cc4)CC3)cc2CC1C (configuration not stated),active: 9.2 µM,
Cc1ccc(NC(=O)c2cnn(-c3ccccc3)c2C)c(C)c1,,inconclusive: -30.4% [inhibitor]
CC1(C)Cc2c(cnn2-c2ccccc2)C(=O)/C1=N\NC(=O)c1ccccc1O,,inactive: 4.67%
O=C(Cn1cc(SCc2ccc(C(F)(F)F)cc2)c2ccccc21)N1CCCCCC1,active: 18.4 µM,
COc1ccc2c(CN(C)c3ccccc3)cc(=O)oc2c1,active: 29.1 µM,
COc1ccc(Cn2c(CNC(=O)c3ccc(N(C)C)cc3)nc3cccnc32)cc1,,inactive: -1.51%
O=C(NCCN1CCOCC1)c1cccc(S(=O)(=O)Nc2ccc(F)cc2)c1,,inactive: -5.32%
CCCCCOP(=O)(c1ccccc1)c1ccccc1,"inconclusive [inhibitor, single point]",
c1ccc(-c2cc3nc(NCc4ccc5c(c4)OCO5)ccn3n2)cc1,"inconclusive [inhibitor, single point]",
Cc1ccc(Cl)cc1NC(=O)C1CCCN(S(=O)(=O)c2c(C)noc2C)C1 (configuration not stated),,inconclusive: -33.8% [inhibitor]
COc1ccc(C(CNC(=O)c2sccc2C)N2CCOCC2)cc1 (configuration not stated),"inconclusive [inhibitor, partial curve, poor fit]",
CCC1CCCCN1CCCNC(=O)c1nn(C)c2c1CS(=O)(=O)c1ccccc1-2 (configuration not stated),,inactive: 10.2%

Compound,Potency,"activity change, negative = growth inhibition"
COc1ccccc1N1CCN(C(=O)C(OC(C)=O)c2ccccc2)CC1 (configuration not stated),"inconclusive [inhibitor, full curve, poor fit]",
CN1CCCN(Cc2ccccc2Br)CC1,,inactive: 4.7%
CCOc1ccc(CCNC(=O)C2CCN(c3nn4c(=O)cc(C)nc4s3)CC2)cc1OCC,,inactive: -0.639%
CC(C)Oc1ccc(CN2CCC(n3nccc3NC(=O)CCc3ccccc3)CC2)cc1,"inconclusive [inhibitor, single point]",
Fc1ccc(Nc2nc3ccccc3c3nncn23)c(Cl)c1,"inconclusive [inhibitor, single point]",
Cc1cc(C)c2nc(N3CCCC(C(=O)NCc4cccc(Br)c4)C3)sc2c1 (configuration not stated),"inconclusive [inhibitor, partial curve, poor fit]",
CC(C)c1cc(/C=C(\C#N)C(=O)NCCCc2ccccc2)cc(C(C)C)c1O,active: 20.6 µM,
CCOc1ccccc1N1CCN(C(=O)c2cc3c(s2)CCC3)CC1,"inconclusive [inhibitor, single point]",
Cc1ccc2oc(=O)c3cc(C(=O)Nc4ccc(F)cc4F)sc3c2c1,"inconclusive [inhibitor, single point]",
COc1cccc(CNc2ccc(F)c(Cl)c2)c1O,"inconclusive [inhibitor, partial curve]",
CCCCN(CCCC)S(=O)(=O)c1ccc2[nH]c(=O)[nH]c2c1,,inactive: -27.6%
COc1ccccc1OCCn1c(=S)[nH]c2ccccc21,active: 18.4 µM,
CCOC(=O)N1CCN(C(=O)c2ccc3[nH]c(C)c(C)c3c2)CC1,,inactive: -22.7%
COc1ccc(S(=O)(=O)N(C)C)cc1NC(=O)Cc1c[nH]c2ccccc12,,inactive: -2.38%
CC1=C(C(=O)N2CCCCCC2)CC(CC(=O)NC2CCCCC2)C(=O)N1CCC1=CCCCC1 (configuration not stated),active: 13 µM,
CCN(CC(=O)Nc1ccc(OC)cc1)C(=O)c1ccc(Cl)c(S(=O)(=O)N2CCCC2)c1,"inconclusive [inhibitor, partial curve]",
Cc1cccc(NC(=O)N2CCCc3ccccc32)c1C,,inactive: -18.5%
Cc1csc(NC(=O)c2cc3c(s2)CCCCC3)n1,"inconclusive [inhibitor, partial curve]",
Cc1ccc(N=Nc2c(C)[nH]n(C(N)=S)c2=O)cc1C,active: 1.84 µM,
CN(CC(=O)NC1CCCCCC1)S(=O)(=O)c1ccc(F)cc1,"inconclusive [inhibitor, single point]",
COC(=O)Cn1c(=O)c2c(nc3n2CC(C)CN3c2ccc(C)c(C)c2)n(C)c1=O (configuration not stated),"inconclusive [inhibitor, single point]",
O=C1CCCc2ccccc2N1Cc1cccc(F)c1,active: 14.6 µM,
COc1cc(C2NC(=O)NC(C)=C2C(=O)OCC2CCCCC2)ccc1O (configuration not stated),,inactive: 7.92%
COc1cccc(/C=N\Nc2nncc(-c3ccccc3)n2)c1,,inactive: -0.484%
O=C(NCc1ccncc1)[C@@H]1CCCN1C(=O)[C@@H]1CCCN1C(=O)c1cccs1,,inactive: -8.62%
